# Measured values reported in the supplement of paper PMC11417369.
# The other results are listed elsewhere or left out.
# System: PF3D7_0420300 AP2 domain 1 (GST-tagged)
# Experiment: gcPBM binding intensity (ln(normalized median fluorescence intensity)); higher = stronger DNA binding
# Summary of the method: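 Probes on an Agilent 4 × 180k array were primer-extended, double-stranded and 36 bp long, taken from intergenic genomic regions, with negative controls added. GST-tagged P. falciparum DNA-binding domains from E. coli, about 25 μg on average, were applied to the array for 1 h in 1× PBS containing 1% milk, 0.2 mg/ml BSA, 0.5% salmon testes DNA and 0.03% Triton X-100. Binding intensity, obtained after Alexa488 anti-GST antibody detection and a 488 nm scan, is the highest Masliner-normalised natural-log median intensity across replicate spots of either probe orientation.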
row,Sequence,gcPBM binding intensity (ln)
1,TAATATAAAGAAAAGGAACACACAAATATATATATA [CACACA_site8049],9.8
2,TTTTCTTGGTTCAGTGTGCACTTATATATATATATA,9.63
3,TTATAATATATATACAGTACATATATAAAATAATAT [XGTACX_site5917],9.25
4,TTATTTCTCTTTTCAGTGCATTTTATAACAAAAAAA [GTGCAC_site9930],8.95
5,ATATATATAATATGCGGTACACATTAATTAAATCAT [XGTACX_site5702],9.44
6,TTATTTTATAATAAAAGTACACAAAAAAAAAAAAAA [XGTACX_site7668],8.94
7,GTAGAGCATAATAAAACACACACATACATACATATA [CACACA_site8217],9.84
8,ATGGACATCTATTGTTGTACACATTTTCCCATAACA [XGTACX_site5429],9.22
9,TTTCAAAAATGAGTTACACACACACGGATATAAATA [CACACA_site7116],9.91
10,GAATATAAAATATATATATATATATATATATATATA [GTGCAC_negctrl_site425],8.79
11,AATTTTAAGAGCTATACATGCACTTCATAAAAAGTG [TGCATGCA_site180],8.87
12,ATAATAAAAAAAAATGCACACATATATATATATATA [CACACA_site8766],9.21
13,TAACAATTAATAAAAGGTACACTTGAATATGCACCA [XGTACX_site2717],9.16
14,AATATATATATATATACACACACACCGATATATATA [CACACA_site8158],10.1
15,TTAATATTTAGACATGCATGCTAATTACTATATATA [TGCATGCA_site27],9.09
16,ATTAATATTCTATATGCATGTGAACCATGGTATATA [TGCATGCA_site430],9.12
17,ATATATATATATATATGTACTTATTTATCGTATTAT [XGTACX_site3520],9.36
18,TCATATCTTTTGAGCACACATATATATATATAAAGG [CACACA_site3338],9.12
19,ATAAAATATTAATTTTAAATTAATCAATATATATAA [GTGCAC_negctrl_site474],8.95
20,AGGCTCAAATCTAGGTGTACCATTATCGTTGTATCT [XGTACX_site4730],9.41
21,ATTTTTTCTTATAATGCATGTAGAAAACCGTACAGC [TGCATGCA_site57],8.91
22,TATGTGTTTATTTGGTGTACATACTAATAAATATAC [XGTACX_site1682],9.31
23,CCTAAATTATATTATGCACACTTAAAAATATATTTA [CACACA_site5861],9.14

row,Sequence,gcPBM binding intensity (ln)
1,ATATAATAAAATGACACACGCATATATATATATATA [CACACA_site2789],9.33
2,TTATATTTATTTATTTGTACATATTTTTTTTTATAT [XGTACX_site1669],9.21
3,TTTCTTTTTAAATATATACACACCGTGGGTACATAT [CACACA_site9102],9.22
4,ATATATATATATAACTGTACTTATATATACATTTTA [XGTACX_site8605],9.25
5,ATATATATATATATATGTACATATATATATAATTTT [XGTACX_site4146],9.18
6,TAAATAAATAAAAAAACACACATATATATATATATA [CACACA_site4029],9.51
7,TTTTATCACATTATTGCACACACATAAAGAAAAAAA [CACACA_site8922],9.52
8,ACGGGTCAATATATGCGTACTTATTTAAATAATTAA [XGTACX_site1518],9.21
9,ATTATGTATATAAATTAACACACATATGTGGTTAAT [CACACA_site9028],9.31
10,ATAAATGGAAACAAAAGTACTAAAAAAAAAAAATAA [XGTACX_site1510],9.32
11,AATAATATAGATTGTACACACAAAATGGGAAAAAAA [CACACA_site1886],9.86
12,TATATATGTATGTATTGTACAATTAAAAATATGTAT [XGTACX_site3990],9.28
13,AAAAAAAAAAAAGATACACACAAAAATGAATATATA [CACACA_site2099],9.8
14,ATATGAAATAATAATAGTACATAAAATAATTTTACT [XGTACX_site6964],9.31
15,ATAGAAATATATATATGTACATATAGATAAATCTAT [XGTACX_site7833],9.28
16,ATAAATACAGATAACACACACATATATATATATATA [CACACA_site5431],9.72
17,AAAAATAACGTAAATTGTACATGTAAAATTTTCTAT [XGTACX_site7158],9.25
18,TTATTTATTTATAATAGTACAATTTAATGATCTTCT [XGTACX_site4831],9.02
19,TGTTTTATACTAAATGAACACACACCCATATATATA [CACACA_site7912],9.64
20,CAATATATTTGATTTACACACTTACAATGTATATAA [CACACA_site2994],9.33
21,AATAATATATATATATATATAATAAAATATAAATAG [CACACA_negctrl_site1515],9.34
22,CCAACATGCCCACGCACACACAAAAAAAGCATGCAT [CACACA_site4217],9.58
23,TAAAAAATGAAAAAGCGTACATGTTTTCTTATATTA [XGTACX_site1722],9.08

row,Sequence,gcPBM binding intensity (ln)
1,TTTTCTAAAATGAATTGTACTTGATTATTTAAAAAA [XGTACX_site6097],8.6
2,ATACTAAAAAGTATCTGTACTTATTTTAAAAATAAA [XGTACX_site4116],8.95
3,TATTTACTTATATGCACACATAAATGTGAATTATGG [CACACA_site3777],9.27
4,TAAATAATTAAAATATGTACTGAAATGTAATTATTT [XGTACX_site5894],9.2
5,TGTATCATAAAAATAACACACGTATTTTTTTTTATT [CACACA_site1050],9.38
6,TTATTTATATATTCATGTACATAACATTTCATTCGA [XGTACX_site4388],9.06
7,TTTTAAGAATAAAATTGTACACATACATGTGTTCGC [XGTACX_site438],9.09
8,ATATAAATTTTTTAGAGTACTAAAATAAAATAATAT [XGTACX_site2118],9.02
9,TTCTCATTCAAATTAGTGCATTTTTGTTATTACATT,9.46
10,TGTGTATATATATAATGTACATAAAGATTTATATAT [XGTACX_site5835],9.28
11,AACAGATAAAAGGGTACACACATATATACCTGTACA [CACACA_site4285],9.64
12,TACATAAATATATGTGTGCACAATTTCGTATATTTA [GTGCAC_site9859],9.44
13,TGTACATTCGGAGTAAAAAAAAATTTATACAATTAC [CACACA_negctrl_site1451],9
14,TGTATTAAATTTTGAACACACAAAATAAAACATATA [CACACA_site1672],9.37
15,AAAATCACAAGACACACACACACAAAAAAAAAAAAA [CACACA_site6791],10
16,AGTATAAAATAAATGTGTACACAAGAAAATATGTTA [XGTACX_site8381],9.58
17,ATATATATATGTATGTGTCCACAAGGAGATATATAT [XGTACX_site783],9.6
18,AAAATATTTTAATGTTGTACATTAATATATTATATA [XGTACX_site2513],8.93
19,AGTAAATAATAGATCGCATGTAATAACTAGTAGGAA [TGCATGCA_site948],9.57
20,ATTATAAAGACATATACACACATACGTACATACATA [CACACA_site5893],9.77
21,ACAATTGAAGAAATACGTACATAAAGAAAAACTAGT [XGTACX_site820],9.65
22,TCGTATCTATTGAGGGTGCCTCTATAATTGATACAA [GTGCAC_site9636],8.89
23,AACCTAAGCATTCTTCAAATTATATATGTAAAATGA [CACACA_negctrl_site261],9.03

row,Sequence,gcPBM binding intensity (ln)
1,TAATATAATATATGCACACAAATATGTATTTATGTG [CACACA_site5210],9.64
2,GAAAAAATAAAATAAAGTACATAACTATAATAAAAA [XGTACX_site4807],9.53
3,CTTACACCCATATATACACACATGTATATTTTATAT [CACACA_site4462],9.64
4,TACTCCTCAATATTATGTACATATAATAGTTATAAA [XGTACX_site8551],9.23
5,ATATATAAACACTCTTGTACATAATAATGTATATAT [XGTACX_site2451],9.27
6,TTTCAAAAAAATAGCTATATTTATATTAATGCACGA [TGCATGCA_negctrl_site63],9.09
7,TATATAACTGTCTTCAGTACACAATAAATAAAAATA [XGTACX_site8856],9.19
8,TAATAAAAATAAAATTGTACTAATAACATTTCATTA [XGTACX_site3703],8.94
9,AAAGGTGTATATAATACACACGTGTGATTAAAATTG [CACACA_site8104],9.48
10,AACTTTGAGACATAGTGTACTTACACAATCTTAATA [XGTACX_site3712],9.14
11,ACATTTTTTTTTTTTTTTCTTTTTCTTTTTCTTTTT [CACACA_negctrl_site1295],9.53
12,CATATTTGATACAAGTGTACTTTATTTAAAAATTCT [XGTACX_site8408],9.01
13,TATTTAATGCAAAAACGTACATAAATAACATTCACA [XGTACX_site5356],9.19
14,TATAAACACCCATATAAACACACATACATACATACA [CACACA_site8791],9.58
15,TATATATATATTAGTGGTACAAGATTTTTTTCTTTT [XGTACX_site4619],9.24
16,CTAGACTTTTTACAATGTACATATTTATGTATTATT [XGTACX_site1833],9.23
17,TCTTGTAGATATATTTGTACATATATTTATGGGTAT [XGTACX_site1139],9.44
18,TTTTTTCATAAATAATGTACATATATATATATATAT [XGTACX_site3620],9.07
19,ATATTATTTATAAGTTGTACGGTATAATATAATATA [XGTACX_site5371],9.14
20,AAAAAATATATATTAACACACACACTAATAAAAAAA [CACACA_site8366],10
